Among all 370,000 compounds or so, about 150 (0.041%) were called active. Inconclusive means that the source gave no clear call. Such entries were picked first, then a sample of the others. The call rests on the fitted dose curve; in most records, active means well fitted inhibition curve with a large enough effect; inconclusive means small, poorly fitted or top-dose-only effect; inactive means flat fitted curve, though single readings scatter. No potency is given beside an inconclusive call; the fits are too rough.
These compounds were tested against Beta-lactamase (Escherichia coli (strain K12)) (UniProt P00811) (assay: qHTS Inhibitors of AmpC Beta-Lactamase (assay with detergent)). Conditions: AmpC hydrolysis of nitrocefin, absorbance 480 nm, 0.01% Triton; series mostly up to 114 µM.
Chain of UniProt P00811 (P00811 whole entry, looked up): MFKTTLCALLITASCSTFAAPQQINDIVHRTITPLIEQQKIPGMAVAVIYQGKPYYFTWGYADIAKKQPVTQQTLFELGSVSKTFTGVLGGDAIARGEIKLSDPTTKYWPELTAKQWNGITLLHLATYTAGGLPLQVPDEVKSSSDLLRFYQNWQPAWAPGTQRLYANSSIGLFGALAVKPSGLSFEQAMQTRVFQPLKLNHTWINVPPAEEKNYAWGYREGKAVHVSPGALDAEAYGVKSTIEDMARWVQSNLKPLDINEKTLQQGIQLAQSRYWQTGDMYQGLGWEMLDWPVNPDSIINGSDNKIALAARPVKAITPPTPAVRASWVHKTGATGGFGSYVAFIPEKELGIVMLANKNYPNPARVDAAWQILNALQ
Procedure, shortened: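 AmpC (5.3 nM in the dispensed reagent) in 20 mM phosphate pH 7.0 with 0.01% (detergent screen) or 0.0001% Triton X-100 was preincubated with compounds for 15 min at room temperature. Nitrocefin was then added from an 800 uM solution, and hydrolysis was followed at 480 nm.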
`Cc1ccc(S(=O)(=O)N2CCOCC2)cc1C(=O)NC(=S)N1CC(C)CC(C)C1` (stereo not given) was tested, and the Potency was “inactive”. `Cc1nc2ncnn2c(C)c1CCC(=O)N1CCc2ccccc2C1` was tested, and the Potency was inconclusive [inhibitor, single point]. With `Cc1ccc(CCNC(=O)CCS(=O)(=O)c2cc3c(cc2C)NC(=O)CO3)cc1` the Potency was inconclusive [inhibitor, full curve, poor fit]. For `COc1ccc(C(=O)NCC(=O)N2CCCCC2)cc1OC`, the Potency was inconclusive [inhibitor, single point]. With `COc1ccc(N/C=C/c2nc(SC)nnc2C)cc1` the Potency was inconclusive [inhibitor, full curve, poor fit]. `CCn1c(C(=O)N2CCCC(C(=O)N3CCN(c4cc(C)ccc4C)CC3)C2)cc2sccc21` (stereo not given) was tested, and the Potency was “inactive”. `Cc1ccc(/C=N/Nc2ccc(C(=O)O)cc2)s1` was tested, and the Potency was “inactive”. With `Cc1ccccc1NC(=O)CN1C(=O)S/C(=C\c2ccc(-c3cc(C(=O)O)ccc3C)o2)C1=O` the Potency was active: 56.2 µM. In the case of `CCOC(=O)Nc1ccccc1N1C(=O)c2ccccc2C1=O`, the Potency was inconclusive [inhibitor, full curve]. With `CCN1CC2(COC(=O)c3ccccc3N)CCC(OC)C34C5CC6C(OC)CC(O)(C5C6OC)C(O)(C(OC)C23)C14` (stereo not given) the Potency was inconclusive [inhibitor, partial curve]. With `COc1cccc(CN(C(=O)c2cccs2)C2CCS(=O)(=O)C2)c1` (stereo not given) the Potency was “inactive”. With `CCCCc1ccc(CC2S/C(=C(\C#N)C(=O)N3CCOCC3)N(c3ccccc3)C2=O)cc1` (stereo not given) the Potency was inconclusive [inhibitor, single point]. In the case of `O=C(CCc1nc2ccccc2c(=O)[nH]1)Nc1cc(C(F)(F)F)ccc1N1CCCC1`, the Potency was inconclusive [inhibitor, partial curve, poor fit]. With `CCOC(=O)c1ccc2c(c1)nc(-c1ccccn1)n2CC` the Potency was “inactive”. In the case of `CCOC(=O)c1c(C)n(-c2ccc(OC)cc2)c2ccc(O)c(CN(C)C)c12`, the Potency was “inactive”. `CCOC(=O)C(NC(=O)c1ccc(F)cc1)(Nc1nnc(C)s1)C(F)(F)F` (stereo not given) was tested, and the Potency was inconclusive [inhibitor, full curve]. In the case of `CCC1CN(C(=O)Nc2ccc(C)c(F)c2)c2ccccc2S1` (stereo not given), the Potency was “inactive”. With `CN1CC[C@]23c4ccccc4N[C@H]1[C@]21CCN(C)[C@H]3Nc2ccccc21` the Potency was inconclusive [inhibitor, full curve]. `COc1ccc(C(=O)Nc2cc(C)c(NC(=O)c3ccccn3)cn2)cc1` was tested, and the Potency was “inactive”. `COc1cc(C(=O)NCCNC(=O)c2cnccn2)cc(OC)c1OC` was tested, and the Potency was inconclusive [inhibitor, full curve, poor fit]. For `Cc1ccc(S(=O)(=O)N(C)c2nonc2C)cc1`, the Potency was inconclusive [inhibitor, full curve, poor fit]. With `CC(C)(C)NC(=O)COc1ccc(-c2ccccc2)cc1` the Potency was “inactive”. With `COc1ccccc1CNS(=O)(=O)c1cc(CN2C(=O)c3cccnc3C2=O)ccc1OC` the Potency was “inactive”. For `COC(=O)[C@@H]1C(c2ccccc2)(c2ccccc2)[C@@]1(C)C(=O)OC`, the Potency was inconclusive [inhibitor, full curve, poor fit]. In the case of `Cc1ccc2[nH]c(C)c(/C=N/Nc3nc4ccccc4s3)c2c1`, the Potency was inconclusive [inhibitor, full curve, poor fit]. With `CCOCCCn1c(SCC(=O)NCc2ccco2)nc2c(sc3ccccc32)c1=O` the Potency was inconclusive [inhibitor, full curve]. `COc1ccc(CCNC(=O)CCc2c(C)c3cc4c(C)coc4c(C)c3oc2=O)cc1OC` was tested, and the Potency was inconclusive [inhibitor, full curve, poor fit]. In the case of `CCN1CCN(S(=O)(=O)c2ccc(Cl)c(C(=O)Nc3ccccc3N3CCCCC3)c2)CC1`, the Potency was inconclusive [inhibitor, full curve, poor fit]. In the case of `CC(/C=N/NC(=O)Cc1cccs1)=C\c1ccccc1`, the Potency was “inactive”. For `CCOc1cc(CO)ccc1OCC(=O)N1CCCCC1`, the Potency was inconclusive [inhibitor, partial curve, poor fit]. In the case of `COc1ccc(CCN=C(N)NS(=O)(=O)c2ccc(OC)c(OC)c2)cc1OC`, the Potency was inconclusive [inhibitor, partial curve, poor fit]. For `Cc1ccccc1Cc1c(C)nc2nc(SCC(=O)NCc3ccco3)nn2c1C`, the Potency was “inactive”. With `Cc1ccc(S(=O)(=O)N2CN(CC3CCCO3)c3nc4ccccc4nc32)cc1` (stereo not given) the Potency was “inactive”. With `NC(=O)CSc1nnc(-c2cc3ccccc3o2)n1Cc1ccccc1` the Potency was inconclusive [inhibitor, single point]. With `CC1=C(C(=O)Nc2ccccc2)C(c2coc3ccccc3c2=O)C2=C(CCCC2=O)N1` (stereo not given) the Potency was inconclusive [inhibitor, partial curve]. With `COC(=O)c1ccccc1NC(=O)CSc1nnc(COc2cccc(OC)c2)n1C` the Potency was inconclusive [inhibitor, partial curve, poor fit]. `COc1cccc(CN2CCN(C(=O)COc3ccc4ccccc4c3)CC2)c1` was tested, and the Potency was inconclusive [inhibitor, partial curve, poor fit]. With `O=C1NC(c2ccccc2)C(C(=O)c2cccs2)C(O)(C(F)(F)F)N1` (stereo not given) the Potency was inconclusive [inhibitor, full curve, poor fit]. For `O=C(Nc1ccc(N2CCN(Cc3ccccc3)CC2)cc1)c1ccccc1[N+](=O)[O-]`, the Potency was “inactive”. `Cc1sc(NC(=O)/C=C/C(=O)O)c(C(N)=O)c1-c1ccc(C(C)(C)C)cc1` was tested, and the Potency was “inactive”. `COC(=O)C1C2CCC(C2)C1C(=O)OCC(=O)c1ccccc1` (stereo not given) was tested, and the Potency was inconclusive [inhibitor, full curve, poor fit]. With `Cc1ccc(C(=O)N/C(=C\c2ccc(F)cc2)C(=O)NCc2ccncc2)cc1` the Potency was inconclusive [inhibitor, full curve, poor fit]. For `CC1CCc2cc(F)ccc2N1C(=O)c1cnc2sccn2c1=O` (stereo not given), the Potency was inconclusive [inhibitor, full curve]. In the case of `COCCN(C(=O)COC(=O)/C=C/c1nc2ccccc2s1)c1c(N)n(Cc2ccccc2)c(=O)[nH]c1=O`, the Potency was inconclusive [inhibitor, single point]. With `O=C(O)c1ccc(N/N=C/c2cc3ccccc3nc2Cl)cc1` the Potency was “inactive”. For `Cc1cc(C(F)F)n2nc(C(=O)Nc3cccnc3Cl)nc2n1`, the Potency was inconclusive [inhibitor, full curve]. With `CN(C(=O)CC(=O)Nc1ccc(Cl)c(Cl)c1)c1ccccc1` the Potency was inconclusive [inhibitor, full curve]. `O=C(Nc1cccc(NC(=O)c2cccs2)c1)c1ccc(Br)o1` was tested, and the Potency was “inactive”. For `Cc1cnc(C(=O)Nc2ccc(F)cc2)cn1`, the Potency was inconclusive [inhibitor, full curve, poor fit]. In the case of `O=C(c1cccs1)n1nc(-c2ccco2)nc1SCc1ccccc1`, the Potency was “inactive”. For `O=C(CC1S/C(=N/N=C/c2cccs2)NC1=O)Nc1ccccc1F` (stereo not given), the Potency was inconclusive [inhibitor, single point]. With `CSc1nc2ccc(NC(=O)c3ccc(=O)[nH]c3)cc2s1` the Potency was inconclusive [inhibitor, full curve]. In the case of `COc1ccc(-c2csc(NC(=O)CSc3nnc(Nc4ccccc4C)s3)n2)cc1`, the Potency was “inactive”. In the case of `NS(=O)(=O)c1ccc(CCNC(c2ccccc2)c2ccccc2)cc1`, the Potency was inconclusive [inhibitor, full curve]. For `CNc1ccc2oc(C[C@H]3O[C@@]4(CC[C@H]3C)O[C@H]([C@H](C)C(=O)c3ccc[nH]3)[C@H](C)C[C@H]4C)nc2c1C(=O)O`, the Potency was “inactive”. With `COc1ccccc1CC(=O)Nc1ccc(-c2noc(COc3cccc(C)c3C)n2)cc1` the Potency was inconclusive [inhibitor, full curve, poor fit]. For `COc1ccc(CNC(=O)CSC(=S)N2CCCC2)cc1`, the Potency was inconclusive [inhibitor, full curve]. In the case of `COc1ccc(/C=C(\NC(=O)c2ccccc2)C(=O)N/N=C/c2cccnc2)cc1`, the Potency was “inactive”. In the case of `c1ccc2c(c1)nnn1c3ccccc3nc21`, the Potency was inconclusive [inhibitor, full curve, poor fit]. With `CCOC(=O)c1ccc(Oc2nc(NC)nc(OC)n2)cc1` the Potency was “inactive”. For `Cc1sc(NC(=O)C2CCCO2)c(C#N)c1C` (stereo not given), the Potency was “inactive”. `COc1ccc(-c2nnc3c4ccccc4c(C)nn23)cc1` was tested, and the Potency was inconclusive [inhibitor, full curve, poor fit]. `COC(=O)CNC(=O)c1nn(-c2cccc(OC)c2)c(=O)c2ccccc12` was tested, and the Potency was inconclusive [inhibitor, full curve, poor fit]. In the case of `CN(C1CCCCC1)S(=O)(=O)c1ccc2c(c1)c(=O)c(C(=O)N1CCN(c3ccccc3F)CC1)cn2C`, the Potency was “inactive”. With `CCCCCCC(=O)NNC(=O)CC(=O)Nc1ccccc1C(=O)O` the Potency was inconclusive [inhibitor, partial curve]. With `CNC(=O)N(C1=NCC(C)(C)S1)c1ccc(F)c(Cl)c1` the Potency was “inactive”. In the case of `C=CCC1(CC=C)CCCN1C(=O)CC1C(=O)NCCN1Cc1cccc(OC)c1` (stereo not given), the Potency was “inactive”. `CN(C)S(=O)(=O)c1cccc(C(=O)Nc2ccccc2)c1` was tested, and the Potency was “inactive”. For `Cc1ccc(OCCn2nnc3sc4c(c3c2=O)CCC(C)C4)cc1` (stereo not given), the Potency was “inactive”. In the case of `Cc1cc(C)cc(NS(=O)(=O)c2ccc3[nH]cc(C(=O)NCc4ccccc4Cl)c(=O)c3c2)c1`, the Potency was “inactive”.
Further: nearly all actives have a fitted effect of over 25% in size.
Potency means the concentration at half of the fitted maximal effect; tags describe the fitted curve by direction and shape.
